PubChem BioAssay AID504332 (National Center for Advancing Translational Sciences (NCATS), 2011)
Hit rate of the full screen: of about 350,000 compounds, about 31,000 (8.9%) were called active. Inconclusive results, whose numbers are uncertain, are shown with a selection of clear calls. Calls follow the shape of the dose curve; as a rule, active = well fitted inhibition curve with a large enough effect; inconclusive = small, poorly fitted or top-dose-only effect; inactive = no such curve, though single readings can be large or run the other way. A potency beside an inconclusive call is a rough fit, not a confirmed value.

target: Histone-lysine N-methyltransferase EHMT2 (Homo sapiens) (UniProt Q96KQ7); assay: qHTS Assay for Inhibitors of Histone Lysine Methyltransferase G9a; settings: G9a H3K9 monomethylation, AlphaScreen, 2 h; activity, negative = inhibition: at 59 µM (top of the series) unless noted; also: nearly all actives have a fitted effect of over 75% in size
Outline: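 G9a (20 nM) was preincubated 15 min with compound, then reacted 2 h at room temperature with 500 nM biotin-H3K9 peptide and 20 µM SAM. Monomethyl-H3K9 detected by AlphaScreen using anti-H3K9me1 antibody.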
% is scaled to controls: 0 for no effect and ±100 for the full control effect; potency is read from the fitted curve at half-maximal effect; tags tell the direction and shape of the fitted curve.

Chain of UniProt Q96KQ7 (Q96KQ7 whole entry, looked up): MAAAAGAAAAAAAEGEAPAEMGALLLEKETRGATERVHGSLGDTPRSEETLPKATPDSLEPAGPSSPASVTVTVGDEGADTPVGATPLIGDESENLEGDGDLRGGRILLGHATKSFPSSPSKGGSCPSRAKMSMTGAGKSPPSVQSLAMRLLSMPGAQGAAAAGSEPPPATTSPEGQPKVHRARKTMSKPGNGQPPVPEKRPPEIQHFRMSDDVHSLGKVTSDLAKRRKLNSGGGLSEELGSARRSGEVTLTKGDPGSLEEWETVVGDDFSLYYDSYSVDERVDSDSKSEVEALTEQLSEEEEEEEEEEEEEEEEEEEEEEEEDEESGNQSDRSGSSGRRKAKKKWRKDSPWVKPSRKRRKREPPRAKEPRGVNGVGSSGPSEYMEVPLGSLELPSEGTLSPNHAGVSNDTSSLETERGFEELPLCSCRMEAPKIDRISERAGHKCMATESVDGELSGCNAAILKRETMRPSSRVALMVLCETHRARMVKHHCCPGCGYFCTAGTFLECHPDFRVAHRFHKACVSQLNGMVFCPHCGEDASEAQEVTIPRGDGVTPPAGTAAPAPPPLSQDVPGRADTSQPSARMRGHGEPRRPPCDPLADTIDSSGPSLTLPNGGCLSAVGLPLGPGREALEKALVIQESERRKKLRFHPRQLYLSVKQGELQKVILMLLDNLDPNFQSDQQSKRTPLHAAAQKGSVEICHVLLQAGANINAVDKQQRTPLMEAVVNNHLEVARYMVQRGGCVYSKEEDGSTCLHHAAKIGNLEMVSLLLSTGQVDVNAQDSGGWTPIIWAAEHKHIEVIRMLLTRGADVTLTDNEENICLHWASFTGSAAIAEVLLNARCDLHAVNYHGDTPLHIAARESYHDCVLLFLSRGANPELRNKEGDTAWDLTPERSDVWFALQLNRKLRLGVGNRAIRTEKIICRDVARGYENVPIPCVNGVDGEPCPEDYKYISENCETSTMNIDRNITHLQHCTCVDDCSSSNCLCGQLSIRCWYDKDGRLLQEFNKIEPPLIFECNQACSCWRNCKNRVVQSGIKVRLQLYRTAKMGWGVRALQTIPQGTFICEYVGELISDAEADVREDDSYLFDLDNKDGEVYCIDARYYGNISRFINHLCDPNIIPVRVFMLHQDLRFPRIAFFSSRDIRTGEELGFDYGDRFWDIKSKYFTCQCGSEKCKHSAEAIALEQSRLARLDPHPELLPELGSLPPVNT

`CCOc1ccc(NS(=O)(=O)c2ccc(C(=O)NCC(c3ccccc3OC)N3CCCC3)cc2)cc1` (stereo unspecified) was tested. Which Potency did it give?
The Potency was active: 1.26 µM.

How did the Potency turn out when `Cc1cccc(CCNC(=O)CC2C(=O)NCCN2CC2CCCCC2)n1` (stereo unspecified) was run?
Its Potency is inconclusive: 89.1 µM [inhibitor, single point].

How did the Potency turn out when `O=C(Cc1cccs1)NC(Cc1c[nH]c2ccccc12)C(=O)O` (stereo unspecified) was run?
The Potency was active: 56.2 µM.

`CC12CCC(C[N+](C)(CCC[N+](C)(C)C)C1)C2(C)C` (stereo unspecified) was tested. Which Potency did it give?
Its Potency is inconclusive: 1.26 µM [inhibitor, partial curve, poor fit].

For `COc1cccc(-c2ccc(NC(=O)C3CCCN(Cc4cnc(N(C)C)s4)C3)cc2)c1` (stereo unspecified), which Potency is on record?
The Potency was inconclusive: 50.1 µM [inhibitor, partial curve, poor fit].

For `O=C(Oc1ccccc1C(=S)N1CCOCC1)c1ccccc1`, which Potency is on record?
The Potency was active: 44.7 µM.

For `Cc1ccc(N(C)C(=O)c2cc(S(=O)(=O)N3CCCCC3)c[nH]2)cc1`, which Potency is on record?
Its Potency is inconclusive: 89.1 µM [inhibitor, partial curve, poor fit].

How did the Potency turn out when `COc1ccc(C2=NN(CC(=O)NCCCN(C)c3ccccc3)C(=O)CC2)cc1` was run?
The Potency was inconclusive: 14.1 µM [inhibitor, partial curve, poor fit].

`COc1ccc(C2=NS(=O)(=O)N(C)C(C(=O)N3CCOCC3)=C2)cc1` was tested. Which Potency did it give?
Its Potency is inconclusive: 89.1 µM [inhibitor, single point].

How did the Potency turn out when `Cc1ccc2oc(=O)c(/C=C(\O)C(C)(C)C)nc2c1` was run?
The Potency was inconclusive: 79.4 µM [inhibitor, single point].

How did the Potency turn out when `CCOC(=O)C1(C)/C(=N/Nc2ccccc2)C(=O)C(=O)N1c1ccccc1` (stereo unspecified) was run?
The Potency was active: 8.91 µM.

Which Potency does the source give for `CCOC(=O)c1ccc(NC(=O)CCc2c(C)nc3nc[nH]n3c2=O)cc1` here?
The Potency was “inactive”.

For `CCC(C)NS(=O)(=O)c1ccc(S(=O)(=O)N2CCCC3(CCCCC3)C2)cc1` (stereo unspecified), which Potency is on record?
The Potency was inconclusive: 56.2 µM [inhibitor, partial curve, poor fit].

`COc1cccc(-n2c(=S)sc3c(=O)n(-c4ccccc4OC)c(SCC4OCCO4)nc32)c1` was tested. Which Potency did it give?
The Potency was “inactive”.

Which activity, negative = inhibition does the source give for `CCOC(=O)c1c(NC(=O)OC)sc(C(=O)N(CC)CC)c1C` here?
Its activity, negative = inhibition is inconclusive: -89.8% [inhibitor].

How did the Potency turn out when `COc1ccc(N2CCN(C3=NS(=O)(=O)C(c4cccc(Br)c4)=C3C)CC2)cc1` was run?
The Potency was inconclusive: 35.5 µM [inhibitor, single point].

How did the Potency turn out when `Cc1ccc(C)c(NS(=O)(=O)c2cc3c(cc2Cl)NC(=O)CO3)c1` was run?
The Potency was inconclusive: 10 µM [inhibitor, partial curve].

Which Potency does the source give for `CN(CC(=O)Nc1cccc(F)c1)C(=O)c1ccc(N2CCCCCC2)c([N+](=O)[O-])c1` here?
The Potency was inconclusive: 6.31 µM [inhibitor, partial curve, poor fit].

With `Cc1[nH]nc(Nc2ccc(C(C)C)cc2)c1[N+](=O)[O-]` as the molecule, how does the Potency read?
Its Potency is inconclusive: 35.5 µM [inhibitor, partial curve, poor fit].

With `CCOC(=O)c1cccc(NC(=O)C2CCN(S(=O)(=O)c3cn(C)cn3)CC2)c1` as the molecule, how does the Potency read?
The Potency was “inactive”.

Which Potency does the source give for `CCOC(=O)c1ccc(NC(=O)CC2C(=O)N(c3ccc(F)cc3)C(=O)N2Cc2ccc3c(c2)OCO3)cc1` (stereo unspecified) here?
The Potency was inconclusive: 39.8 µM [inhibitor, single point].

For `COc1ccc(N=C2S/C(=C\c3ccc(N4CCOCC4)o3)C(=O)N2CCc2c[nH]c3ccccc23)cc1`, which Potency is on record?
The Potency was inconclusive: 22.4 µM [inhibitor, single point].

For `CC(C)c1ccc(NC(=S)NN2CCN(C)CC2)cc1`, which Potency is on record?
The Potency was inconclusive: 44.7 µM [inhibitor, partial curve, poor fit].

With `Cn1cc(CN2CCN(c3ncccn3)CC2)c(-c2cccc(Cl)c2)n1` as the molecule, how does the Potency read?
Its Potency is “inactive”.

`COc1ccccc1Nc1nc2ccc(Cl)cc2nc1-n1nc(C)cc1C` was tested. Which Potency did it give?
The Potency was “inactive”.

`O=C(Nc1ccccc1N1CCOCC1)c1cc2ccccc2o1` was tested. Which Potency did it give?
The Potency was “inactive”.

For `Oc1cccc(/C=N/n2c(C3CCCCC3)n[nH]c2=S)c1`, which Potency is on record?
The Potency was active: 2 µM.

Which Potency does the source give for `O=c1c2ccccc2sn1-c1ccccc1` here?
The Potency was inconclusive: 1.41 µM [inhibitor, single point].

`Cc1cc(C)c[n+](-c2nc3ccccc3nc2[N-]S(=O)(=O)c2ccc(Br)s2)c1` was tested. Which Potency did it give?
Its Potency is inconclusive: 4.47 µM [inhibitor, single point].

Which Potency does the source give for `Cc1ccc(S(=O)(=O)NCC2NCCc3ccccc32)cc1` (stereo unspecified) here?
The Potency was inconclusive: 89.1 µM [inhibitor, single point].

With `COc1cccc(C2=NOC(C(=O)Nc3ccc4c(c3)OCO4)C2)c1OC` (stereo unspecified) as the molecule, how does the Potency read?
The Potency was active: 44.7 µM.

For `CCOC(=O)c1c(C)n(CCNC(C)=O)c2ccc(O)cc12`, which Potency is on record?
Its Potency is “inactive”.

For `CC(C)(C)OC(=O)N1CCC(c2c(C(=O)NCCN3CCC(Cc4ccccc4)CC3)cnn2-c2ccccc2)CC1`, which Potency is on record?
Its Potency is inconclusive: 7.94 µM [inhibitor, partial curve, poor fit].

How did the Potency turn out when `CCc1ccc(NC(=O)N2CC(C)Oc3ccc(C)cc32)cc1` (stereo unspecified) was run?
Its Potency is “inactive”.

For `Cc1ccc(C(=O)COC(=O)c2cnccn2)cc1`, which Potency is on record?
Its Potency is inconclusive: 35.5 µM [inhibitor, single point].

How did the Potency turn out when `CCC(=O)Nc1ccc(/C(C)=N\NS(=O)(=O)c2ccc(C)cc2)cc1` was run?
Its Potency is inconclusive: 8.91 µM [inhibitor, single point].

For `CCCn1c(NCc2ccccc2C)nc2ccccc21`, which Potency is on record?
The Potency was “inactive”.

With `CC1CCCN(c2ccc(C(=O)OCn3nnc4ccccc4c3=O)cc2[N+](=O)[O-])C1` (stereo unspecified) as the molecule, how does the Potency read?
Its Potency is inconclusive: 12.6 µM [inhibitor, partial curve, poor fit].

How did the Potency turn out when `O=C(c1ccco1)N1CCN(C(=O)c2cn(-c3ccccc3)nc2-c2ccc(F)cc2)CC1` was run?
The Potency was inconclusive: 79.4 µM [inhibitor, single point].

Which Potency does the source give for `Cc1cc(C(=O)COC(=O)c2ccc[nH]c2=O)c(C)n1C1CC1` here?
Its Potency is inconclusive: 89.1 µM [inhibitor, single point].

For `CN(C)S(=O)(=O)c1cccc(C(=O)OCC(=O)Nc2sccc2C#N)c1`, which Potency is on record?
Its Potency is “inactive”.

Which Potency does the source give for `COc1ccc(-n2cc(-c3ccccc3)nc2SCC(=O)Nc2ccccc2)cc1Cl` here?
The Potency was inconclusive: 11.2 µM [inhibitor, partial curve].

How did the Potency turn out when `CC(C)CNc1ncnc2c1sc1nc(N3CCOCC3)c3c(c12)CC(C)(C)OC3` was run?
The Potency was “inactive”.

`CS(=O)(=O)c1cccc(C(=O)Nc2ccccc2Cc2ccccc2)c1` was tested. Which Potency did it give?
The Potency was inconclusive: 1.41 µM [inhibitor, partial curve, poor fit].

How did the Potency turn out when `Cc1ccc(S(=O)(=O)N2CCC(=O)N(CCOCc3ccccc3)CC2)cc1` was run?
The Potency was inconclusive: 89.1 µM [inhibitor, single point].

For `O=C(CCCn1c(=O)c2sccc2n(CC(=O)OCc2ccccc2)c1=O)NCc1ccco1`, which Potency is on record?
The Potency was inconclusive: 89.1 µM [inhibitor, single point].

Which Potency does the source give for `CC(C)c1ccc(C2(C)NC(=O)N(C(C)C(=O)Nc3ccc(N4CCOCC4)cc3)C2=O)cc1` (stereo unspecified) here?
Its Potency is active: 56.2 µM.

`COc1ccc(-c2ccc3nnc(SCC(=O)NCC4CCCO4)n3n2)cc1` (stereo unspecified) was tested. Which Potency did it give?
The Potency was “inactive”.

How did the Potency turn out when `COc1ccc(-n2nc3c(N4CCCC(C(=O)NCCc5ccc(C)cc5)C4)nnc(C)c3c2C)cc1` (stereo unspecified) was run?
Its Potency is inconclusive: 8.91 µM [inhibitor, full curve].

With `Fc1ccc(OCCOCCN2CCNCC2)cc1` as the molecule, how does the Potency read?
Its Potency is inconclusive: 22.4 µM [inhibitor, full curve, poor fit].

Which activity, negative = inhibition does the source give for `COCCNC(=O)CC(NS(=O)(=O)c1ccc(NC(C)=O)cc1)C(C)C` (stereo unspecified) here?
The activity, negative = inhibition was inactive: -3.32% [at 12.7 µM].

For `COc1cc(CN2CCNC(=O)C2CC(=O)NCCCN2CCOCC2)cc(OC)c1` (stereo unspecified), which Potency is on record?
Its Potency is inconclusive: 79.4 µM [inhibitor, partial curve, poor fit].

With `CN(C)c1ccc(C(=S)N2CCN(C(=S)Nc3ccccc3)CC2)cc1` as the molecule, how does the Potency read?
Its Potency is inconclusive: 79.4 µM [inhibitor, partial curve, poor fit].

For `Cc1ccc(C(=O)CSc2nc3ccccc3c(=O)n2N)o1`, which Potency is on record?
Its Potency is inconclusive: 89.1 µM [inhibitor, single point].

How did the Potency turn out when `O=C(CNCc1ccccc1Cl)Nc1ccccc1N1CCCCC1` was run?
Its Potency is active: 10 µM.

How did the Potency turn out when `CC(=O)NC1C(=O)N=C(SCC(=O)Nc2c(C)cccc2C)NC1=O` (stereo unspecified) was run?
Its Potency is inconclusive: 44.7 µM [inhibitor, partial curve, poor fit].

With `O=C(c1ccccc1F)N1CCN(c2cnn(-c3cccc(Cl)c3)c(=O)c2Cl)CC1` as the molecule, how does the Potency read?
Its Potency is “inactive”.

Which Potency does the source give for `CN1CCN(S(=O)(=O)c2ccc(C#N)cc2)C(c2ccccc2)C1` (stereo unspecified) here?
The Potency was inconclusive: 20 µM [inhibitor, partial curve, poor fit].

For `Cc1ccc2c(c1)C(c1ccc(F)cc1)N(C(=O)c1ccccc1Br)CC(=O)N2` (stereo unspecified), which Potency is on record?
Its Potency is “inactive”.

Which Potency does the source give for `O=C(Nc1c2c(nn1-c1ccc(F)cc1)CS(=O)(=O)C2)c1ccc(S(=O)(=O)N2CCOCC2)cc1` here?
The Potency was inconclusive: 89.1 µM [inhibitor, partial curve, poor fit].

`Cn1c(=O)c2c(ncn2CC(=O)OCC(=O)NCc2ccc(Cl)cc2)n(C)c1=O` was tested. Which Potency did it give?
Its Potency is inconclusive: 56.2 µM [inhibitor, partial curve, poor fit].

With `COc1cc(C2c3c(oc4ccccc4c3=O)C(=O)N2c2nnc(C(C)C)s2)cc(OC)c1OC` (stereo unspecified) as the molecule, how does the Potency read?
The Potency was “inactive”.

With `NS(=O)(=O)c1ccc(-c2cccc(/C=C3\SC(=O)NC3=O)c2)cc1` as the molecule, how does the Potency read?
The Potency was inconclusive: 89.1 µM [inhibitor, single point].

`CCC(=O)n1nc(-c2cccnc2)nc1NCc1ccc(OC)cc1` was tested. Which activity, negative = inhibition did it give?
Its activity, negative = inhibition is inconclusive: -63.4% [inhibitor].

How did the activity, negative = inhibition turn out when `COc1ncc2nc(C)c(=O)n(C[C@H]3CCCO3)c2n1` was run?
The activity, negative = inhibition was inactive: 0.0959% [at 12.7 µM].

For `Cn1c(=O)c2c(nc(CN3CCOCC3)n2CCc2ccccc2)n(C)c1=O`, which Potency is on record?
Its Potency is inconclusive: 70.8 µM [inhibitor, partial curve, poor fit].
